Experimental data published in the supplement of paper PMC7125110.
± gives the standard error. Variants at the floor of the assay are shown more often than the library holds them.

B1: glmS ribozyme (parent)
chain: AUAAAAGCGCCAGAACUACAGAAAUGUAGUUGACGAGGAGGAGGUUUAUCGAAUUUUCGGCGGAUGCCUCCAAA

Legend:
Settings in all cases: with glucosamine-6-phosphate
glucosamine-6-phosphate [1] = variants of: B1; assay: self-cleavage kobs at 40 uM GlcN6P; higher = faster cleavage; RNA array
Summary of the method: (§1)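 Sequenced MiSeq chips were the platform: E. coli RNA polymerase transcribed barcoded ribozyme variants on them in situ, and a hybridised Cy3 probe tracked these at 37 °C. After glucosamine-6-phosphate (40 μM to 10 mM) in HEPES/KCl/Mg(OAc)2 buffer was flowed in, tiles were imaged over ~14 h. Signals normalised to baseline and to non-cleaving reference variants were reduced to per-tile medians and fit to one- or two-exponential decays to obtain kobs. kcat and KM were derived through weighted Michaelis–Menten fits across concentrations.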

glucosamine-6-phosphate [2] = variants of: B1; assay: self-cleavage kobs at 640 uM GlcN6P; higher = faster cleavage; RNA array
Summary of the method: as §1

glucosamine-6-phosphate [3] = variants of: B1; assay: self-cleavage kobs at 10000 uM GlcN6P; higher = faster cleavage; RNA array
Summary of the method: as §1

glucosamine-6-phosphate [4] = variants of: B1; assay: self-cleavage kobs at 160 uM GlcN6P; higher = faster cleavage; RNA array
Summary of the method: as §1

glucosamine-6-phosphate [5] = variants of: B1; assay: self-cleavage kobs at 2500 uM GlcN6P; higher = faster cleavage; RNA array
Summary of the method: as §1

Variant	self-cleavage kobs at 40 uM GlcN6P (glucosamine-6-phosphate [1])	self-cleavage kobs at 640 uM GlcN6P (glucosamine-6-phosphate [2])	self-cleavage kobs at 10000 uM GlcN6P (glucosamine-6-phosphate [3])	self-cleavage kobs at 160 uM GlcN6P (glucosamine-6-phosphate [4])	self-cleavage kobs at 2500 uM GlcN6P (glucosamine-6-phosphate [5])
AUAAAAGCGCCAGCACUACAGAAAUGUAGUUGACGAGGAGAGGGUUUAUCGAGUUUUCGGCGGAAGACUCCAAA [A14C G41A A42G A53G U65A C67A]	< 1e-05 s⁻¹				
AUAAAAGCGCCAGCACUACAGAAAUGUAGUUGACGAGGAGGAGGUUUAUCGAAUUUUCUGCGGAUGCCUCCAAA [A14C G59U]	< 1e-05 s⁻¹	< 1e-05 s⁻¹			
AUAAAAGCGCCAGCACUACAGAAAUGUAGUUGACGAGGAGGAGGUUUAUCGAAUUUUCGUCGGAUGCCUCGAAA [A14C G60U C71G]	< 1e-05 s⁻¹		< 1e-05 s⁻¹		
AUAAAAGCGCCAGCACUACAGAAAUGUAGUUGACGAGGAGGAGGUUUAUCGAAUUUUCGGCCGAUGCCUCCAAA [A14C G62C]	< 1e-05 s⁻¹	< 1e-05 s⁻¹	< 1e-05 s⁻¹	< 1e-05 s⁻¹	< 1e-05 s⁻¹
AUAAAAGCGCCAGCACUACAGAAAUGUAGUUGACGAGGAGGAGGUUUAUCGAAUUUUCGGCGCAUGCCUCCAAA [A14C G63C]	< 1e-05 s⁻¹		< 1e-05 s⁻¹	< 1e-05 s⁻¹	
AUAAAAGCGCCAGCACUACAGAAAUGUAGUGGACGAUGAGGUGGUUUAUCGUAUUUUCGGCGGAUGCCUCCAAA [A14C U31G G37U A42U A52U]	< 1e-05 s⁻¹				
AUAAAAGCGCCAGCACUACAGAAAUGUAGUUGACGAGGAGGAGGGUAAUCAAAUUCUCCGCGGAUGACUCCAAA [A14C U45G U47A G51A U56C G59C C67A]	< 1e-05 s⁻¹		< 1e-05 s⁻¹		
AUAAAAGCGCCAGCACUACAGAAAUGUAGUUGACGAGGAGGAGGUUGAUCGAAUUUUCGGCGGAUGCCUCCAAA [A14C U47G]	2.31e-05 ± 1.1e-05 s⁻¹	0.000208 ± 3e-05 s⁻¹		6.35e-05 ± 1.2e-05 s⁻¹	0.000422 ± 8.2e-05 s⁻¹
AUAAAAGCGCCAGCACUACAGAAAUGUAGUUGACGAGGAGGAGGUUUAUCGAAGUUUCGGCGGAUGCCUCCAAA [A14C U54G]	0.00011 ± 1.7e-05 s⁻¹	0.00107 ± 0.00016 s⁻¹	0.00448 ± 0.00056 s⁻¹	0.000219 ± 3.6e-05 s⁻¹	0.00296 ± 0.00041 s⁻¹
AUAAAAGCGCCAGCACUACAGAAAUGUAGUUGACGAGGAGGAGGUUUAUCGAAUUUCCGGCGGAUGCCCCCAAA [A14C U57C U69C]	< 1e-05 s⁻¹				
AUAAAAGCGCCAGGACUACAGAAAUGUAGUUGUCGAGGAGGAAGUUUAUCGAAUUUUCGGCGGAUGCCUCCAAA [A14G A33U G43A]	< 1e-05 s⁻¹				
AUAAAAGCGCCAGGACUACAGAAAUGUAGUUGACGUGGAGGAGGUUUUUCGAAUUUUCGGCGGAUGCCUCCAAA [A14G A36U A48U]	< 1e-05 s⁻¹				
AUAAAAGCGCCAGGACUACAGAAAUGUAGUUGACGAGGAGGAGGUUUAUCGCAUUUUCGGCGGAUGCCUCCAAA [A14G A52C]	< 1e-05 s⁻¹				
AUAAAAGCGCCAGGACUACAGAAAUGUAGUUGACGAGGAGGAGGUUUAUCGGAUUUUCGGUGGAUGCCUCCAAA [A14G A52G C61U]	< 1e-05 s⁻¹				
AUAAAAGCGCCAGGACUACAGAAAUGUAGUUGACGAGGAGGAGGUUUAUCGAUUGUUCGGCGGAUGCCUCCAAA [A14G A53U U55G]	0.000607 ± 0.00013 s⁻¹				
AUAAAAGCGCCAGGACUACAGAAAUGUAGUUGACGAGGAGGAGGUUUAUCGAAUUUUGGUCGGACGCCUCCAAA [A14G C58G G60U U65C]	< 1e-05 s⁻¹		< 1e-05 s⁻¹		
AUAAAAGCGCCAGGACUACAGAAAUGUAUUUGACGAGGAGGAGGUUUAUCGAAUUUUCGGCGGAUGCCUCCAAA [A14G G29U]	0.000647 ± 0.00012 s⁻¹	0.00497 ± 0.00096 s⁻¹	0.0131 ± 0.0033 s⁻¹	0.00105 ± 0.00022 s⁻¹	0.00501 ± 0.0013 s⁻¹
